Source: the supplement of paper PMC11417369
The other results are listed elsewhere or left out.

test system: PfHDP1 homeodomain (GST-tagged); assay: gcPBM binding intensity (ln(normalized median fluorescence intensity)); higher = stronger DNA binding
Method in brief: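 In this array assay, P. falciparum DNA-binding domains with a GST tag, expressed in E. coli, were applied for 1 h to primer-extended double-stranded 36-bp intergenic genomic probes and negative controls on an Agilent 4 × 180k array. Bound protein was visualised with Alexa488 anti-GST antibody at 488 nm. Binding intensity is the highest Masliner-normalised natural-log median intensity across replicate spots of either probe orientation.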

Sequence	gcPBM binding intensity (ln)
TAATGGATTATACGTGCACACATATATACAAATAAA [CACACA_site8116]	9.65
TTATTTATTTTTATATGTACACAAAAAAAAAAAAAA [XGTACX_site1459]	6.53
AATATATATAACGTTGGTACACAAAAATTATTAAAT [XGTACX_site8572]	6.72
AATGTATTTATTTTTTGTACATATCGTGTGTGTATT [XGTACX_site1009]	6.63
TTCTATTATGTGACTCAATTCTTCATGGGTGTATAA [TGCATGCA_negctrl_site140]	6.6
TTTGGAATATAATATTGTACATATTATATATATATA [XGTACX_site3187]	8.53
TTTTTTTTTAAATATACACACACATTTATACATATA [CACACA_site9122]	6.76
TATACATATGTATGCACACATACATACACATAGAAT [CACACA_site3480]	9.51
TATATTATTTAAAAAGTGCAGTTACAAGATGAACCT [GTGCAC_site9641]	6.36
GGAAAGACATTACACAGTACCCAGGAAATCTACGGA [XGTACX_site2002]	6.25
TAATATTTATTCTATTGTACATAAAATATATATATA [XGTACX_site7132]	8.12
ATAAATAAAAAACACACACACACACCCAAAAAAAAA [CACACA_site2624]	6.79
ATTATATATGTATAAATATGCTATATATATATATAT [GTGCAC_negctrl_site430]	9.42
TCAACATTTAAAAATAGTACTCATAAACCTTTCGAA [XGTACX_site4111]	6.03
AATTATATTAATTCTTCATTACATTTTAAAATATTA [XGTACX_negctrl_site510]	6.35
AATACGCATTTTAGTACACACTTAAAAAGTTATTTT [CACACA_site7401]	6.21
TTATAATATAAAAATAAATAAATAAATAAATAAATA [CACACA_negctrl_site1587]	6.49
TGCTATTATTTATGTACACACCAATTTATTTATAAT [CACACA_site6029]	7.13
TTCGTTATATTTTGATGTACTGATTCATATATATAT [XGTACX_site1835]	8.09

Sequence	gcPBM binding intensity (ln)
ATTGATTTTTAATATACACACATAAGGACCACAAAA [CACACA_site4344]	7.03
AGAGAATATTTCCACACATGCAAATGTTATATGTAA [TGCATGCA_site282]	6.57
ATTCGGATATATATCACACATAACTTTAATAATATA [CACACA_site5720]	6.52
ATTATAATAGTTAAATGTACACACTAACTACATGGA [XGTACX_site6918]	6.5
AATTAAAAATTCAAGTGTACTTTTATATTATTATAC [XGTACX_site4106]	5.98
TAAATAGCCAAACGCACACCCACAAAAAAAAAAAAA [CACACA_site1554]	6.51
TCATATTTGCCTTTTTATTTAGAACACAAAAAAAAA [CACACA_negctrl_site1152]	6.17
TATATATAATATACATGTACAAATGTATTTAAAAAT [XGTACX_site6090]	6.49
CAAAAAAAGAAAGCTACACACATTTATGTGCTATAT [CACACA_site2777]	6.72
AGAAAATACACGCATACACACACACCCACCCACATA [CACACA_site8115]	7.25
TATCTCTCTTTCTGCTGTACATAAAAATTATATAAT [XGTACX_site5961]	7.19
AACATATTTTTAAATACACACACATAAAAAAAAAAA [CACACA_site8279]	6.75
AAAATAACGAGTCAAACACACATATATATATATATA [CACACA_site2039]	9.39
AGCATAAACAATTTTTGAAAAAATATACACTCATAG [CACACA_negctrl_site890]	6.62
TATATATATATATACACACACACAAAAAAAAAAAAA [CACACA_site1505]	9.2
TCTACAAGGCTTGATCGTACAATTTGAATGTATTTG [XGTACX_site7698]	6.29
CTCAACATATACGTAACACACATATATATATATATA [CACACA_site3838]	9.39
TATGCAAGGAACCACACACACACACCCAAATGTATA [CACACA_site750]	6.93
AGATTATATATATGTATATATGTATATATTTATATA [CACACA_negctrl_site1797]	6.12

Sequence	gcPBM binding intensity (ln)
TAAATATTAACAATCGCACACATATTATTTTTCCAA [CACACA_site1626]	6.84
GAATATATATTCATATGTACACAATTTATGTATTAT [XGTACX_site4719]	6.56
AAGGTAAACAGACACACACACATACAAAAAAAAAAA [CACACA_site3768]	6.67
AAAAAGAAAAAATATATTCGTCTATTATAAACAATA [CACACA_negctrl_site648]	6
GAATATAAACCTATTACACACATCTATATGTACATT [CACACA_site1914]	6.88
CTATATCATTTTCTAGCACACACATTGTTATTACCT [CACACA_site8204]	7.16
ATTTTTTTTATTATTACACACATATAACAAAAAAAT [CACACA_site6934]	6.71
TTTTTTATGCTAACTTCTTTTTCCTTATAAAATTGG [TGCATGCA_negctrl_site598]	6.7
AACACATACAGATATGCACACATTTTATTCCATTAT [CACACA_site5565]	9.92
TATTTATAAATGAACACACACGCAATTTGAATCGAA [CACACA_site3371]	7.09
ATATATATATTATATGCACACTTATATTTCATTAGA [CACACA_site5439]	10.3
TTTTTATATTTCAACATATCACAATTTTATATATCT [CACACA_negctrl_site178]	6.43
TTTTGTTTTTGTAGAGTGCATAAAGAAGATATGTAT	8.75
TGGAAACAATGACACACACACAAAAAAAAAAAAAAA [CACACA_site7494]	6.22
GTAGGGGAAAAAAAAACACACAAAAAACAACAGATC [CACACA_site1187]	7.01
TTATCTCTACAAAGTGCACACACGTAAAAACATATA [CACACA_site3957]	8.98
ATAATAATATTTCTATGTACTTATTTTATGTATTAG [XGTACX_site1747]	6.54
AAAAATTAAAATATAACTAATTAATTTGTATTCATT [CACACA_negctrl_site1633]	5.77
